According to the supplement of paper PMC4967469:
IC50 is the fitted dose that halves viability relative to control wells, and lower means more sensitive; a fit beyond the top or the lowest dose is shown as a bound at that dose. The AUC spans the tested range (256-fold, ending at the top dose) of the same fit; values near 1 show little effect. For some assays here: An inferred top dose comes from the curve model; the source does not state it. For some assays here: Where an entry number is given, a second screen of the drug exists; the two often differ.

Columns and labels:
PAC-1 = compound: C=CCc1cccc(/C=N/NC(=O)CN2CCN(Cc3ccccc3)CC2)c1O [PAC-1]; assay: Viability of human cancer cell lines after 72 h of drug (GDSC screen); settings: top dose 2.56 µM
Protocol: (§1)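 Human cancer cell lines in 384-well plates, medium with 10% serum, drug for 72 h over a 256-fold dose range (nine 2-fold or five 4-fold steps up to the top dose). Adherent lines were fixed and stained with the nucleic acid dye Syto60, suspension lines read with resazurin; signal relative to control wells, capped at 0 and 100%. One two-parameter sigmoid per drug and line, fitted in a mixed model over all curves with the slope shared within a line.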

BMS-708163 = compound: NC(=O)[C@@H](CCC(F)(F)F)N(Cc1ccc(-c2ncon2)cc1F)S(=O)(=O)c1ccc(Cl)cc1 [BMS-708163]; assay: as above; settings: top dose 5 µM; screen: GDSC drug entry 1072; top dose inferred
Protocol: as §1

Cell Line: SW620 (large intestine, adherent)
- AUC (PAC-1): 0.945
- IC50 (PAC-1): > 2.56 µM
- AUC (BMS-708163): 0.989
- IC50 (BMS-708163): > 5 µM

Cell Line: SW626 (ovary, adherent)
- AUC (PAC-1): 0.928
- IC50 (PAC-1): > 2.56 µM
- AUC (BMS-708163): 0.935
- IC50 (BMS-708163): > 5 µM

Cell Line: SW780 (bladder, adherent)
- AUC (PAC-1): 0.977
- IC50 (PAC-1): > 2.56 µM
- AUC (BMS-708163): 0.977
- IC50 (BMS-708163): > 5 µM

Cell Line: SW837 (large intestine, adherent)
- AUC (PAC-1): 0.861
- IC50 (PAC-1): > 2.56 µM
- AUC (BMS-708163): 0.979
- IC50 (BMS-708163): > 5 µM

Cell Line: SW900 (lung squamous cell carcinoma, adherent)
- AUC (PAC-1): 0.953
- IC50 (PAC-1): > 2.56 µM
- AUC (BMS-708163): 0.98
- IC50 (BMS-708163): > 5 µM

Cell Line: SW948 (large intestine, adherent)
- AUC (PAC-1): 0.98
- IC50 (PAC-1): > 2.56 µM
- AUC (BMS-708163): 0.967
- IC50 (BMS-708163): > 5 µM

Cell Line: SW982 (soft tissue, adherent)
- AUC (PAC-1): 0.916
- IC50 (PAC-1): > 2.56 µM
- AUC (BMS-708163): 0.962
- IC50 (BMS-708163): > 5 µM

Cell Line: SW1088 (glioma, adherent)
- AUC (PAC-1): 0.968
- IC50 (PAC-1): > 2.56 µM
- AUC (BMS-708163): 0.977
- IC50 (BMS-708163): > 5 µM

Cell Line: SW1271 (small cell lung carcinoma, adherent)
- AUC (PAC-1): 0.926
- IC50 (PAC-1): > 2.56 µM
- AUC (BMS-708163): 0.966
- IC50 (BMS-708163): > 5 µM

Cell Line: SW1417 (large intestine, adherent)
- AUC (PAC-1): 0.975
- IC50 (PAC-1): > 2.56 µM
- AUC (BMS-708163): 0.902
- IC50 (BMS-708163): > 5 µM

Cell Line: SW1463 (large intestine, adherent)
- AUC (PAC-1): 0.974
- IC50 (PAC-1): > 2.56 µM
- AUC (BMS-708163): 0.976
- IC50 (BMS-708163): > 5 µM

Cell Line: SW1573 (lung adenocarcinoma, adherent)
- AUC (PAC-1): 0.975
- IC50 (PAC-1): > 2.56 µM
- AUC (BMS-708163): 0.971
- IC50 (BMS-708163): > 5 µM

Cell Line: SW1710 (bladder, adherent)
- AUC (PAC-1): 0.895
- IC50 (PAC-1): > 2.56 µM
- AUC (BMS-708163): 0.951
- IC50 (BMS-708163): > 5 µM

Cell Line: SW1783 (glioma, adherent)
- AUC (PAC-1): 0.935
- IC50 (PAC-1): > 2.56 µM
- AUC (BMS-708163): 0.988
- IC50 (BMS-708163): > 5 µM

Cell Line: SW1990 (pancreas, adherent)
- AUC (PAC-1): 0.978
- IC50 (PAC-1): > 2.56 µM
- AUC (BMS-708163): 0.985
- IC50 (BMS-708163): > 5 µM

Cell Line: Saos-2 (osteosarcoma, adherent)
- AUC (PAC-1): 0.92
- IC50 (PAC-1): > 2.56 µM
- AUC (BMS-708163): 0.978
- IC50 (BMS-708163): > 5 µM

Cell Line: SiHa (cervix, adherent)
- AUC (PAC-1): 0.987
- IC50 (PAC-1): > 2.56 µM
- AUC (BMS-708163): 0.974
- IC50 (BMS-708163): > 5 µM

Cell Line: T47D (breast, adherent)
- AUC (PAC-1): 0.955
- IC50 (PAC-1): > 2.56 µM
- AUC (BMS-708163): 0.92
- IC50 (BMS-708163): > 5 µM

Cell Line: T84 (large intestine, adherent)
- AUC (PAC-1): 0.805
- IC50 (PAC-1): 1.32 µM
- AUC (BMS-708163): 0.949
- IC50 (BMS-708163): > 5 µM

Cell Line: T98G (glioma, adherent)
- AUC (PAC-1): 0.989
- IC50 (PAC-1): > 2.56 µM
- AUC (BMS-708163): 0.989
- IC50 (BMS-708163): > 5 µM

Cell Line: T-24 (bladder, adherent)
- AUC (PAC-1): 0.986
- IC50 (PAC-1): > 2.56 µM
- AUC (BMS-708163): 0.948
- IC50 (BMS-708163): > 5 µM

Cell Line: T-T (oesophagus, adherent)
- AUC (PAC-1): 0.981
- IC50 (PAC-1): > 2.56 µM
- AUC (BMS-708163): 0.939
- IC50 (BMS-708163): > 5 µM

Cell Line: TCCSUP (bladder, adherent)
- AUC (PAC-1): 0.975
- IC50 (PAC-1): > 2.56 µM
- AUC (BMS-708163): 0.976
- IC50 (BMS-708163): > 5 µM

Cell Line: TE-11 (oesophagus, adherent)
- AUC (PAC-1): 0.964
- IC50 (PAC-1): > 2.56 µM
- AUC (BMS-708163): 0.855
- IC50 (BMS-708163): 3.46 µM

Cell Line: TGBC11TKB (stomach, adherent)
- AUC (PAC-1): 0.977
- IC50 (PAC-1): > 2.56 µM
- AUC (BMS-708163): 0.989
- IC50 (BMS-708163): > 5 µM

Cell Line: TGBC24TKB (biliary tract, adherent)
- AUC (PAC-1): 0.932
- IC50 (PAC-1): > 2.56 µM
- AUC (BMS-708163): 0.949
- IC50 (BMS-708163): > 5 µM

Cell Line: TMK-1 (stomach, adherent)
- AUC (PAC-1): 0.984
- IC50 (PAC-1): > 2.56 µM
- AUC (BMS-708163): 0.986
- IC50 (BMS-708163): > 5 µM

Cell Line: TOV-21G (ovary, adherent)
- AUC (PAC-1): 0.984
- IC50 (PAC-1): > 2.56 µM
- AUC (BMS-708163): 0.948
- IC50 (BMS-708163): > 5 µM

Cell Line: TOV-112D (ovary, adherent)
- AUC (PAC-1): 0.923
- IC50 (PAC-1): > 2.56 µM
- AUC (BMS-708163): 0.983
- IC50 (BMS-708163): > 5 µM

Cell Line: TT2609-C02 (thyroid, adherent)
- AUC (PAC-1): 0.941
- IC50 (PAC-1): > 2.56 µM
- AUC (BMS-708163): 0.986
- IC50 (BMS-708163): > 5 µM

Cell Line: TT (thyroid, adherent)
- AUC (PAC-1): 0.978
- IC50 (PAC-1): > 2.56 µM
- AUC (BMS-708163): 0.97
- IC50 (BMS-708163): > 5 µM

Cell Line: TYK-nu (ovary, adherent)
- AUC (PAC-1): 0.974
- IC50 (PAC-1): > 2.56 µM
- AUC (BMS-708163): 0.981
- IC50 (BMS-708163): > 5 µM

Cell Line: U031 (kidney, adherent)
- AUC (PAC-1): 0.815
- IC50 (PAC-1): 1.47 µM
- AUC (BMS-708163): 0.922
- IC50 (BMS-708163): > 5 µM

Cell Line: U251 (glioma, adherent)
- AUC (PAC-1): 0.987
- IC50 (PAC-1): > 2.56 µM
- AUC (BMS-708163): 0.985
- IC50 (BMS-708163): > 5 µM

Cell Line: U-2-OS (osteosarcoma, adherent)
- AUC (PAC-1): 0.977
- IC50 (PAC-1): > 2.56 µM
- AUC (BMS-708163): 0.97
- IC50 (BMS-708163): > 5 µM

Cell Line: U-118-MG (glioma, adherent)
- AUC (PAC-1): 0.977
- IC50 (PAC-1): > 2.56 µM
- AUC (BMS-708163): 0.985
- IC50 (BMS-708163): > 5 µM

Cell Line: UACC-62 (melanoma, adherent)
- AUC (PAC-1): 0.986
- IC50 (PAC-1): > 2.56 µM
- AUC (BMS-708163): 0.91
- IC50 (BMS-708163): > 5 µM

Cell Line: UACC-893 (breast, adherent)
- AUC (PAC-1): 0.976
- IC50 (PAC-1): > 2.56 µM
- AUC (BMS-708163): 0.982
- IC50 (BMS-708163): > 5 µM

Cell Line: UM-UC-3 (bladder, adherent)
- AUC (PAC-1): 0.988
- IC50 (PAC-1): > 2.56 µM
- AUC (BMS-708163): 0.985
- IC50 (BMS-708163): > 5 µM

Cell Line: UMC-11 (lung carcinoid, adherent)
- AUC (PAC-1): 0.991
- IC50 (PAC-1): > 2.56 µM
- AUC (BMS-708163): 0.982
- IC50 (BMS-708163): > 5 µM

Cell Line: VM-CUB-1 (bladder, adherent)
- AUC (PAC-1): 0.989
- IC50 (PAC-1): > 2.56 µM
- AUC (BMS-708163): 0.989
- IC50 (BMS-708163): > 5 µM

Cell Line: VMRC-MELG (melanoma, adherent)
- AUC (PAC-1): 0.913
- IC50 (PAC-1): > 2.56 µM
- AUC (BMS-708163): 0.98
- IC50 (BMS-708163): > 5 µM

Cell Line: VMRC-RCZ (kidney, adherent)
- AUC (PAC-1): 0.925
- IC50 (PAC-1): > 2.56 µM
- AUC (BMS-708163): 0.912
- IC50 (BMS-708163): > 5 µM

Cell Line: WM35 (melanoma, adherent)
- AUC (PAC-1): 0.844
- IC50 (PAC-1): 1.85 µM
- AUC (BMS-708163): 0.976
- IC50 (BMS-708163): > 5 µM

Cell Line: WM278 (melanoma, adherent)
- AUC (PAC-1): 0.924
- IC50 (PAC-1): > 2.56 µM
- AUC (BMS-708163): 0.965
- IC50 (BMS-708163): > 5 µM

Cell Line: WM793B (melanoma, adherent)
- AUC (PAC-1): 0.921
- IC50 (PAC-1): > 2.56 µM
- AUC (BMS-708163): 0.984
- IC50 (BMS-708163): > 5 µM

Cell Line: WM1552C (melanoma, adherent)
- AUC (PAC-1): 0.904
- IC50 (PAC-1): > 2.56 µM
- AUC (BMS-708163): 0.978
- IC50 (BMS-708163): > 5 µM

Cell Line: WM-115 (melanoma, adherent)
- AUC (PAC-1): 0.956
- IC50 (PAC-1): > 2.56 µM
- AUC (BMS-708163): 0.95
- IC50 (BMS-708163): > 5 µM

Cell Line: YAPC (pancreas, adherent)
- AUC (PAC-1): 0.981
- IC50 (PAC-1): > 2.56 µM
- AUC (BMS-708163): 0.961
- IC50 (BMS-708163): > 5 µM

Cell Line: huH-1 (liver, adherent)
- AUC (PAC-1): 0.972
- IC50 (PAC-1): > 2.56 µM
- AUC (BMS-708163): 0.966
- IC50 (BMS-708163): > 5 µM
